Results taken from the supplement of paper PMC10369915.
Some of the results follow. No stated cut-off is given here; in the data, active = 3.2 or more and inactive = the rest. Only a few entries rise above the background.

biological target: SHP2 C-SH2 domain E139D; assay: enrichment score (SH2-bound / input frequency) (ratio); bacterial display of known human phosphotyrosine sites (pTyr-Var adds point mutants) read by sequencing; higher = stronger binding; tyrosines were phosphorylated by kinases first; details: peptide library: pTyr-Var
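Further: displayed peptides selected on beads carrying the immobilized SH2 domain, with library peptides lacking any tyrosine serving as negative controls.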

Enrichment score, inactive:
SNMPTYSGHFT [GRIN2A_Y1224] 0.902
SQSPHYFRSGR [GPATCH8_Y1038] 0.186
NIWDSYTTNKV [GNB1_Y85_I80N] 1.11
LIDSSYLTRTA [GREB1L_Y1063] 0.83
AAVLNYKAWRD [GRIN2A_Y737_G740W] 1.2
MHLRQYKLLGG [GNAS_Y391_E392K] 0.77
HCFAAYFQQGD [GPI_Y351_R347C] 2.06
KLPFLYDDPFS [GPX2_Y127_P126L_YF] 1.38
IGEVVYQRAAM [GRIN2A_Y502_V506A] 0.907
AAVLNYKAGRD [GRIN2A_Y737] 0.737
EFTAGYNVKFD [GPX4_Y123_A120T] 1.46
VTRAKYFIRDE [GNAS_Y339] 0.638
KLPYPYDDPFS [GPX2_Y127] 0.765
SVQVEYMKTIL [GLYATL2_Y127_D126E] 1
EGNERYEGFCV [GRIA3_Y451_YF] 0.461
KDKLPYLYDDP [GPX2_Y125_P126L] 0.489
IGEVVYQRAVM [GRIN2A_Y502] 1.22
STILLYHIMAW [GPR143_Y157] 1.72
SNMPTYSGHFS [GRIN2A_Y1224_T1229S] 0.775

biological target: SHP2 C-SH2 domain wild-type; assay: as above; details: peptide library: pTyr-Var

Enrichment score, inactive:
SNMPTYSGHFT [GRIN2A_Y1224] 0.625
SQSPHYFRSGR [GPATCH8_Y1038] 0.263
NIWDSYTTNKV [GNB1_Y85_I80N] 0.857
LIDSSYLTRTA [GREB1L_Y1063] 0.702
AAVLNYKAWRD [GRIN2A_Y737_G740W] 0.808
MHLRQYKLLGG [GNAS_Y391_E392K] 0.666
HCFAAYFQQGD [GPI_Y351_R347C] 1.97
KLPFLYDDPFS [GPX2_Y127_P126L_YF] 1
IGEVVYQRAAM [GRIN2A_Y502_V506A] 0.665
AAVLNYKAGRD [GRIN2A_Y737] 0.614
EFTAGYNVKFD [GPX4_Y123_A120T] 0.742
VTRAKYFIRDE [GNAS_Y339] 0.545
KLPYPYDDPFS [GPX2_Y127] 0.86
SVQVEYMKTIL [GLYATL2_Y127_D126E] 1.15
EGNERYEGFCV [GRIA3_Y451_YF] 0.598
KDKLPYLYDDP [GPX2_Y125_P126L] 0.439
IGEVVYQRAVM [GRIN2A_Y502] 0.978
STILLYHIMAW [GPR143_Y157] 2
SNMPTYSGHFS [GRIN2A_Y1224_T1229S] 0.703

biological target: SHP2 N-SH2 domain L43F; assay: as above; details: peptide library: pTyr-Var

Enrichment score, inactive:
SNMPTYSGHFT [GRIN2A_Y1224] 0.657
SQSPHYFRSGR [GPATCH8_Y1038] 0.172
NIWDSYTTNKV [GNB1_Y85_I80N] 0.954
LIDSSYLTRTA [GREB1L_Y1063] 0.785
AAVLNYKAWRD [GRIN2A_Y737_G740W] 1.2
MHLRQYKLLGG [GNAS_Y391_E392K] 0.612
HCFAAYFQQGD [GPI_Y351_R347C] 1.65
KLPFLYDDPFS [GPX2_Y127_P126L_YF] 1.17
IGEVVYQRAAM [GRIN2A_Y502_V506A] 0.819
AAVLNYKAGRD [GRIN2A_Y737] 0.516
EFTAGYNVKFD [GPX4_Y123_A120T] 1.19
VTRAKYFIRDE [GNAS_Y339] 0.663
KLPYPYDDPFS [GPX2_Y127] 0.912
SVQVEYMKTIL [GLYATL2_Y127_D126E] 0.843
EGNERYEGFCV [GRIA3_Y451_YF] 0.61
KDKLPYLYDDP [GPX2_Y125_P126L] 0.462
IGEVVYQRAVM [GRIN2A_Y502] 0.936
STILLYHIMAW [GPR143_Y157] 1.82
SNMPTYSGHFS [GRIN2A_Y1224_T1229S] 0.742

biological target: SHP2 N-SH2 domain T42A; assay: as above; details: peptide library: pTyr-Var

Enrichment score, inactive:
SNMPTYSGHFT [GRIN2A_Y1224] 0.487
SQSPHYFRSGR [GPATCH8_Y1038] 0.187
NIWDSYTTNKV [GNB1_Y85_I80N] 0.882
LIDSSYLTRTA [GREB1L_Y1063] 0.578
AAVLNYKAWRD [GRIN2A_Y737_G740W] 0.963
MHLRQYKLLGG [GNAS_Y391_E392K] 0.678
HCFAAYFQQGD [GPI_Y351_R347C] 1.6
KLPFLYDDPFS [GPX2_Y127_P126L_YF] 0.909
IGEVVYQRAAM [GRIN2A_Y502_V506A] 0.87
AAVLNYKAGRD [GRIN2A_Y737] 0.568
EFTAGYNVKFD [GPX4_Y123_A120T] 1.02
VTRAKYFIRDE [GNAS_Y339] 0.619
KLPYPYDDPFS [GPX2_Y127] 0.78
SVQVEYMKTIL [GLYATL2_Y127_D126E] 2.81
EGNERYEGFCV [GRIA3_Y451_YF] 0.689
KDKLPYLYDDP [GPX2_Y125_P126L] 0.535
IGEVVYQRAVM [GRIN2A_Y502] 1.15
STILLYHIMAW [GPR143_Y157] 1.82
SNMPTYSGHFS [GRIN2A_Y1224_T1229S] 0.692

biological target: SHP2 N-SH2 domain T52S; assay: as above; details: peptide library: pTyr-Var

Enrichment score, inactive:
SNMPTYSGHFT [GRIN2A_Y1224] 0.545
SQSPHYFRSGR [GPATCH8_Y1038] 0.239
NIWDSYTTNKV [GNB1_Y85_I80N] 0.823
LIDSSYLTRTA [GREB1L_Y1063] 0.529
AAVLNYKAWRD [GRIN2A_Y737_G740W] 0.96
MHLRQYKLLGG [GNAS_Y391_E392K] 0.772
HCFAAYFQQGD [GPI_Y351_R347C] 1.83
KLPFLYDDPFS [GPX2_Y127_P126L_YF] 0.988
IGEVVYQRAAM [GRIN2A_Y502_V506A] 0.794
AAVLNYKAGRD [GRIN2A_Y737] 0.711
EFTAGYNVKFD [GPX4_Y123_A120T] 0.897
VTRAKYFIRDE [GNAS_Y339] 0.838
KLPYPYDDPFS [GPX2_Y127] 0.898
SVQVEYMKTIL [GLYATL2_Y127_D126E] 1.21
EGNERYEGFCV [GRIA3_Y451_YF] 0.567
KDKLPYLYDDP [GPX2_Y125_P126L] 0.444
IGEVVYQRAVM [GRIN2A_Y502] 0.921
STILLYHIMAW [GPR143_Y157] 1.93
SNMPTYSGHFS [GRIN2A_Y1224_T1229S] 0.662

biological target: SHP2 N-SH2 domain wild-type; assay: as above; details: peptide library: pTyr-Var

Enrichment score, inactive:
SNMPTYSGHFT [GRIN2A_Y1224] 0.518
SQSPHYFRSGR [GPATCH8_Y1038] 0.229
NIWDSYTTNKV [GNB1_Y85_I80N] 1.06
LIDSSYLTRTA [GREB1L_Y1063] 0.799
AAVLNYKAWRD [GRIN2A_Y737_G740W] 0.907
MHLRQYKLLGG [GNAS_Y391_E392K] 0.708
HCFAAYFQQGD [GPI_Y351_R347C] 1.94
KLPFLYDDPFS [GPX2_Y127_P126L_YF] 1.13
IGEVVYQRAAM [GRIN2A_Y502_V506A] 1.34
AAVLNYKAGRD [GRIN2A_Y737] 0.727
EFTAGYNVKFD [GPX4_Y123_A120T] 0.969
VTRAKYFIRDE [GNAS_Y339] 0.783
KLPYPYDDPFS [GPX2_Y127] 1.08
SVQVEYMKTIL [GLYATL2_Y127_D126E] 1.23
EGNERYEGFCV [GRIA3_Y451_YF] 0.823
KDKLPYLYDDP [GPX2_Y125_P126L] 0.48
IGEVVYQRAVM [GRIN2A_Y502] 0.896
STILLYHIMAW [GPR143_Y157] 2.01
SNMPTYSGHFS [GRIN2A_Y1224_T1229S] 0.906
